In all, about 150,000 compounds went through this assay and about 540 (0.36%) showed an effect of 50% or more. Some of the results follow.

The subject of the experiment is Plasmodium falciparum. Description: Primary screen in NF54 nanoGlo assay, in single point, at 2uM, 72h; a lower Z score goes with more inhibition. It counts as functional, Erythrocyte. The conditions noted are these: timepoint 72 hour.
For `CN1CCCCC[C@H]1c1nc(CC(N)=O)nn1CCCO`, the % Inhibition (as a rule, the change of the read-out against control, counted positive when it falls) was 5% and the Z score was -0.89.
Regarding `C[C@H](NC(=O)CC1CCCCC1)C(=O)N1CCC(Cc2ncc[nH]2)CC1`, the “% Inhibition” value came to 3% and the Z score is -0.55.
Turning to `COc1ncnc(N(C)C)c1NC(=O)NCC(F)(F)C(F)F`, the “% Inhibition” value is given as -5% and the Z score stood at 0.49.
With `Cc1ccc(CN2C[C@@H](O)C[C@H]2c2nnc3n2CCN(C(=O)C(C)C)C3)s1`, the “% Inhibition” value came to 1% and the Z score is -0.11.
Consider `FC1(F)C[C@@H](COc2ccncc2)N(C2CCCCC2)C1`, for which the “% Inhibition” value was -4% and the Z score was 0.6.
For `C[C@]1(c2nc(C3CC3)no2)CCCN(C(=O)CCC2CCCC2)C1`, in that order: -4% and 0.45.
For the molecule `CCC(c1cccc(Br)c1)C(NC(=O)OC(C)(C)C)C(=O)O` (stereo not drawn), the “% Inhibition” value is given as 23% and the Z score was -2.93.
With `COc1ccc(C(=O)C[n+]2c3c(c(C(=O)O)c4ccccc42)CCCC3)cc1`, the “% Inhibition” value is recorded as -13% and the Z score is recorded as 1.72.
For `Cc1ccc(N2CC[C@](C)(O)[C@@H](O)C2)nn1`, the “% Inhibition” value is recorded as -9% and the Z score was 1.67.
Consider `CC[C@H]1CN(C(=O)NC2CCCCC2)CC[C@H]1CC(=O)N(CC)C(=O)NCCCN(C)C`, for which the “% Inhibition” value worked out at 31% and the Z score was -3.51.
As to `CCC(C)NC(=O)C1C(c2ccc(NC(=O)c3ccccc3)cc2)OC(=O)N1Cc1ccccc1` (stereo not drawn), the “% Inhibition” value is -17% and the Z score is reported as 2.68.
For `Cc1nn(C)c(C)c1CCC(=O)N(C)Cc1cnc(-c2ccccc2)s1` the same measures were 7% and -1.38.
For `CC(C)(C)CCS(=O)(=O)NC(=O)c1cnn(CC(F)(F)F)c1` the same measures were -14% and 2.67.
For `C[C@H]1CN(Cc2ccncc2)c2ccccc2NC1=O`, the “% Inhibition” value is -3% and the Z score was 0.51.
With `Cc1noc(-c2ccc3nnc(CC(=O)NCc4cccc(Cl)c4)n3c2)n1`, the “% Inhibition” value was -3% and the Z score turned out to be 0.47.
For `Cc1nc(N)ncc1C(C)NCC1(C(O)C(C)C)CC1` (stereo not drawn), in that order: -5% and 1.
Take `CCc1onc(C)c1C(=O)N1CCN(C(=O)c2ccc(F)cc2)CC1`: the “% Inhibition” value is reported as 12% and the Z score is -1.6.
Regarding `O=C(Nc1ccc2c(c1)OCCO2)c1ccncc1`, the “% Inhibition” value is listed as -1% and the Z score worked out at 0.14.
With `OCc1cc2n(n1)CCN(Cc1cccc3nonc13)C2`, the “% Inhibition” value was -21% and the Z score was 1.86.
For `CC(C)CNC(=O)[C@H](C)NCCn1cccn1`, the “% Inhibition” value is given as -2% and the Z score turned out to be 0.23.
For `COc1ccnc(CNC(=O)N[C@H]2CCCC23CCCCC3)c1F`, the “% Inhibition” value came out at 1% and the Z score is -0.15.
For `COc1ccc2[nH]c(-c3nnc(Cn4c(C)cc5ccccc54)s3)cc2c1` the same measures were 38% and -4.36.
For `CCCN1C=NS(=O)(=O)c2cc(C(=O)N3CCN(c4ccccc4OC)CC3)ccc21` the same measures were -6% and 0.96.
As for `COc1ccc(CNC(C2CC2)C2CC2)cc1OC[C@@H](O)CN1CCCCCCC1`, the “% Inhibition” value was -8% and the Z score is listed as 1.32.
In the case of `Cc1cc(O)c2cccc(-c3ccc(CO)cc3)c2n1`, the “% Inhibition” value came to 0% and the Z score is listed as -0.01.
Regarding `N#Cc1cc2n(n1)CCCN(C(=O)Cn1cc3ccccc3n1)C2`, the “% Inhibition” value is -9% and the Z score was found to be 1.42.
Consider `CCN1C(=O)[C@@H](Cc2nc3ccccc3c(=O)n2-c2ccc(Cl)cc2)c2ccccc21`, for which the “% Inhibition” value was -19% and the Z score was 2.71.
In the case of `CCN1C(=O)Cc2cc(NC(=O)c3cc(-c4ccccc4)on3)ccc21`, the “% Inhibition” value is listed as -14% and the Z score was determined as 2.01.
With `CC(C)c1cc(C(=O)N2C[C@@H]3[C@H]4CC[C@H](CC4)[C@@H]3C2)[nH]n1`, the “% Inhibition” value is given as -8% and the Z score is on record as 1.4.
`CCN(Cc1cn(C)nn1)C(=O)c1cccn1C`: the “% Inhibition” value is listed as -4% and the Z score was 0.56.
For `Cc1nn(CC(=O)Nc2ccc3c(c2)OCCO3)c(=O)n1C`, in that order: 11% and -1.47.
With `Cc1ccc(C)c(N2CCN(S(=O)(=O)c3cc(C(=O)N4CCCCC4)cs3)CC2)c1`, the “% Inhibition” value is -17% and the Z score worked out at 1.69.
Take `COc1ccccc1CC(C)(C)NC(=O)CCc1ccco1`: the “% Inhibition” value is -18% and the Z score came to 2.44.
Take `CCC(=O)N1CCN(C(=O)c2oc(CC)nc2C)C1`: the “% Inhibition” value was -12% and the Z score came to 1.8.
On to `CC(C)c1ccc(S(=O)(=O)N2CCC3(CCNC(=O)CC3)CC2)cc1`, for which the “% Inhibition” value is recorded as -3% and the Z score was 0.31.
`C[C@H]1CN(S(=O)(=O)CCc2ccccc2)C(C)(C)CO1`: the “% Inhibition” value is reported as -3% and the Z score amounted to 0.34.
For `Cc1cccc(-c2noc(Cn3cccn3)n2)c1`, in that order: -6% and 0.68.
`COc1cc(OC)cc(C(=O)Nc2ccc(N3CCN(C(=O)c4ccccc4Cl)CC3)nc2)c1`: the “% Inhibition” value was -10% and the Z score amounted to 1.44.
Take `CCn1c(CC2CCN(C(=O)c3c(C)cccc3OC)CC2)nn(C)c1=O`: the “% Inhibition” value was -8% and the Z score amounted to 0.98.
For `Nc1cc(C(F)(F)F)cc(C2CC2)n1`, the “% Inhibition” value is recorded as -6% and the Z score was 0.64.
As to `O=C([C@H]1C[C@@H](F)CN1C(=O)Nc1cccc(Cl)c1)N1CCOCC1`, the “% Inhibition” value came out at 9% and the Z score is listed as -1.63.
`Cc1nn(-c2ccc(F)cc2)c2nc(CCC(C)C)nc(N3CCN(C(=O)COCc4ccccc4)CC3)c12`: the “% Inhibition” value is reported as 2% and the Z score was -0.32.
For `CN(Cc1cccnc1)C(=O)[C@H]1CCN(c2cnn(Cc3ccccc3)c(=O)c2)C1`, the “% Inhibition” value is -3% and the Z score is on record as 0.43.
Turning to `COc1ccc(Cn2nc(CC(N)=O)nc2C[C@H]2CCCOC2)cc1`, the “% Inhibition” value is on record as -15% and the Z score is recorded as 2.64.
In the case of `O=C(CCC1CCN(Cc2ccc(CO)o2)CC1)Nc1ccccc1`, the “% Inhibition” value is recorded as -8% and the Z score is recorded as 1.2.
On to `CCCCn1c(=O)[nH]c2c(C(=O)N3CCN(c4cccc(C)c4)CC3)snc2c1=O`, for which the “% Inhibition” value is -17% and the Z score was found to be 2.8.
For `Cc1c(F)cccc1NC(=O)NC(C)(C)CCS(C)(=O)=O`, in that order: -3% and 0.33.
Regarding `C[C@@H](CCn1cncn1)NCCc1cc(Cl)cc(Cl)c1`, the “% Inhibition” value is given as 4% and the Z score is -0.49.
Take `Cc1ccnc2c1NC(=O)CN2C(=O)c1cncc(F)c1`: the “% Inhibition” value was -4% and the Z score is reported as 0.68.
As for `COc1c[nH]c(C(=O)N(C)Cc2ccccc2)cc1=O`, the “% Inhibition” value was -2% and the Z score was found to be 0.21.
As for `O=C1NCCCC[C@@H]1Cc1nc(-c2ccccc2OC(F)F)no1`, the “% Inhibition” value was -3% and the Z score is listed as 0.45.
With `COc1cccc(CNC(=O)N(C)Cc2cc(F)c(F)c(F)c2)n1`, the “% Inhibition” value was 33% and the Z score is reported as -3.71.
For `CN(C1(C#N)CCC1)S(=O)(=O)c1cc(F)ccc1OCC1CC1` the same measures were -2% and 0.23.
For `COc1ccc(CNc2nonc2-c2noc(N)n2)cc1`, in that order: 8% and -0.97.
